Measured values reported in the supplement of paper PMC12217912.
This is one part of the list. Sequences were assembled here from the parent chain. Inactive controls read about 0.05.

B1: TEV protease; numbered along this chain (parent)
chain: MGESLFKGPRDYNPISSSICHLTNESDGHTTSLYGIGFGPFIITNKHLFRRNNGTLVVQSLHGVFKVKDTTTLQQHLVDGRDMIIIRMPKDFPPFPQKLKFREPQREERICLVTTNFQTKSMSSMVSDTSCTFPSGDGIFWKHWIQTKDGQCGSPLVSTRDGFIVGIHSASNFTNTNNYFTSVPKNFMELLTNQEAQQWVSGWRLNADSVLWGGHKVFMVKPEEPFQPVKEATQL

Variants of: B1
Experiment: raw area under fraction-flipped curve 0-4 h after induction (AUC4h, not background-subtracted), DNA-recorder readout of cleavage of the substrate (dimensionless); higher = more cleavage of the substrate by the protease variant
Conditions: temperature: 34 °C; time window: 0-4 h after rhamnose induction
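Further: Bxb1 expression induced with 0.2% (w/v) L-rhamnose at OD600 near 0.5, cultures sampled hourly, flipped fraction per protease–substrate barcode pair counted by paired-end Illumina sequencing.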

| Variant | area with substrate ENLYEQS | area with substrate ENLYHQS | area with substrate ENLYIQS | area with substrate ENLYPQS | area with substrate ENLYSQS | area with substrate ENLYVQS | area with substrate ENLYWQS | area with substrate ENLYYQS | area with substrate ENLYGQS | area with substrate ENLYKQS | area with substrate ENLYLQS | area with substrate ENLYMQS | area with substrate ENLYNQS | area with substrate ENLYQQS | area with substrate ENLYRQS | area with substrate ENLYTQS | area with substrate ENLYDQS |
| --- | --- | --- | --- | --- | --- | --- | --- | --- | --- | --- | --- | --- | --- | --- | --- | --- | --- |
| MGESLFKGPRDYNPISSSICHLTNESDGHTTSLYGIGFGPFIITNKHLFRRNNGTLVVQSLHGVFKVKDTTTLQQHLVDGRDMIIIRMPKDFPPFPQKLKFREPQREERICLVTTNFQTKSMSSMVSDTSCTFPSGDGIFWKHWIQTKDGQCGSPLVSTRDGFIVGIHSASNFTNVNNYFTSVPKNFMELLTNQEAQQWVSGWRLNADSVLWGGHKVFMVKPEEPFQPVKEATQL [T176V] | 0.0586 | 0.0829 | 0.106 | 0.0857 | 0.064 | 0.0855 | 0.0444 | 0.0484 | – | – | – | – | – | – | – | – | – |
| MGESLFKGPRDYNPISSSICHLTNESDGHTTSLYGIGFGPFIITNKHLFRRNNGTLVVQSLHGVFKVKDTTTLQQHLVDGRDMIIIRMPKDFPPFPQKLKFREPQREERICLVTTNFQTKSMSSMVSDTSCTFPSNDGIFWKHWIQTKDGQCGSPLVSTRDGFIVGIHSASNFTNTNNYFTSVPKNFMELLTNQEAQQWVSGWRLNADSVLWGGHKVFMVKPEEPFQPVKEATQL [G136N] | 0.0847 | 0.1 | 0.122 | 0.0812 | – | 0.14 | 0.0701 | 0.0814 | 0.0759 | 0.0593 | 0.069 | 0.107 | 0.066 | 0.0621 | 0.0678 | 0.0985 | – |
| MGESLFKGPRDYNPISSSICHLTNESDGHTTSLYGIGFGPFIITNKHLFRRNNGTLVVQSLHGVFKVKDTTTLQQHLVDGRDMIIIRMPKDFPPFPQKLKFREPQREERICLVTTNFQTKSMSSMVSDTSCTFPSGDGIFWKHWIQTKDGQMGSPLVSTRDGFIVGIHSASNFTNTNNYFTSVPKNFMELLTNQEAQQWVSGWRLNADSVLWGGHKVFMVKPEEPFQPVKEATQL [C152M] | 0.068 | – | 0.0702 | 0.0768 | 0.0505 | – | 0.0536 | 0.0477 | – | 0.0631 | 0.0664 | – | 0.054 | – | – | – | – |
| MGESLFKGPRDYNPISSSICHLTNESDGHTTSLYGIGFGPFIKTNKHLFRRNNGTLVVQSLHGVFKVKDTTTLQQHLVDGRDMIIIRMPKDFPPFPQKLKFREPQREERICLVTTNFQTKSMSSMVSDTSCTFPSGDGIFWKHWIQTKDGQCGSPLVSTRDGFIVGIHSASNFTNTNNYFTSVPKNFMELLTNQEAQQWVSGWRLNADSVLWGGHKVFMVKPEEPFQPVKEATQL [I43K] | 0.0454 | 0.0426 | – | 0.0423 | – | 0.0424 | – | 0.0417 | 0.0491 | 0.033 | – | 0.052 | 0.0479 | 0.0791 | 0.0561 | 0.0542 | 0.0642 |
| MGESLFKGPRDYNPISSSICHLTNESDGHTTSLYGIGFGPFIITNKHLFRRNNGTLVVQSLHGVFKVKDTTTLQQHLVDGRDMIIIRMPKDFPPFPQKLKFREPQREERICLVTTNFQTKSMSSMVSDTSCTFPSGDGIFWKHWIQTKDGQCGSPLVSTRDGFIVGIHSASNFTNTNNYFTSVPKNFMELLTNQEAQQWVSGWRLNADSVLWGGHIVFMVKPEEPFQPVKEATQL [K216I] | 0.0623 | 0.0437 | – | – | – | – | – | – | 0.0662 | – | – | 0.0841 | 0.0774 | – | – | 0.0698 | – |
| MGESLFKGPRDYNPISSSICHLTNESDGHTTSLYGIGFGPFIITNKHLFRRNNGTLVVQSLHGVFKVKDTTTLQQHLVDGRDMIIIRMPKDFPPFPQKLKFREPQREERICLVTTNFQTKSMSSMVSDTSCTFPSGDGIFWKHWIQTKDGQCGSPLVSTRDGFIVGIHSASNFTNTNNYFTSVPKNFMELLTNQEAQQWVSGWRLNADSVLWGGHDVFMVKPEEPFQPVKEATQL [K216D] | 0.0495 | – | – | 0.0634 | 0.0599 | – | 0.0473 | – | – | 0.0674 | 0.0698 | – | – | – | – | – | – |
| MGESLFKGPRDYNPISSSICHLTNESDGHTTSLYGIGFGPFIITNKHCFRRNNGTLVVQSLHGVFKVKDTTTLQQHLVDGRDMIIIRMPKDFPPFPQKLKFREPQREERICLVTTNFQTKSMSSMVSDTSCTFPSGDGIFWKHWIQTKDGQCGSPLVSTRDGFIVGIHSASNFTNTNNYFTSVPKNFMELLTNQEAQQWVSGWRLNADSVLWGGHKVFMVKPEEPFQPVKEATQL [L48C] | 0.0662 | 0.0626 | – | 0.0629 | – | 0.0886 | – | – | 0.0708 | 0.0575 | 0.0638 | 0.0661 | 0.0701 | 0.0654 | – | 0.07 | 0.0599 |
| MGESLFKGPRDYNPISSSICHLTNESDGHTTSLYGIGFGPFIITNKHNFRRNNGTLVVQSLHGVFKVKDTTTLQQHLVDGRDMIIIRMPKDFPPFPQKLKFREPQREERICLVTTNFQTKSMSSMVSDTSCTFPSGDGIFWKHWIQTKDGQCGSPLVSTRDGFIVGIHSASNFTNTNNYFTSVPKNFMELLTNQEAQQWVSGWRLNADSVLWGGHKVFMVKPEEPFQPVKEATQL [L48N] | 0.0653 | 0.0261 | – | 0.053 | 0.0635 | – | 0.056 | – | 0.0642 | 0.0521 | – | – | 0.0551 | – | 0.0512 | – | 0.068 |
| MGESLFKGPRDYNPISSSICHLTNESDGHTTSLYGIGFGPFIITNKHLFRRNNGTLVVQSLHGVFKVKDTTTLQQHLVDGRDMIIIRMPKDFPPFPQKLKFRETQREERICLVTTNFQTKSMSSMVSDTSCTFPSGDGIFWKHWIQTKDGQCGSPLVSTRDGFIVGIHSASNFTNTNNYFTSVPKNFMELLTNQEAQQWVSGWRLNADSVLWGGHKVFMVKPEEPFQPVKEATQL [P104T] | 0.0605 | – | – | 0.0621 | 0.0518 | – | – | – | 0.0645 | – | – | 0.0653 | – | 0.0598 | – | 0.0376 | – |
| MGESLFKGPRDYNPISSSICHLTNESDGHTTSLYGIGFGPFIITNKHLFRRNNGTLVVQSLHGVFKVKDTTTLQQHLVDGRDMIIIRMPKDFPPFPQKLKFREPQREERICLVTTNFQTKSMSSMVSDTSCTFPSGDGIFWKHWIQTKDGQCGSPLVSTRDGFIVGIHSASNFTNTNNYFTSVPKNFMELLTNQEAQQWLSGWRLNADSVLWGGHKVFMVKPEEPFQPVKEATQL [V200L] | 0.0672 | 0.0787 | 0.103 | – | 0.0735 | – | – | – | 0.0741 | – | – | 0.0942 | 0.0691 | 0.057 | 0.0825 | – | – |
